# Test results reported in the supplement of paper PMC8728848.
# The list shows a part of the results.
# B1: NcCVNHO (Neurospora crassa), Q7S6U4 (protein)
# chain: MSFHVTAEDARIEVRDNRTILFARLRREDGEWNDASYELDQIIGNNDGHFQWGGQNFTETAEDIRFHPKEGAAEQPILRARLRDCNGEFHDRDVNLTEIVENVNGEFQAKF
# Legend:
# Test in all cases: glycan array binding signal (z-score within array); higher = stronger binding
# Conditions in all cases: glycan notation: IUPAC condensed, linker removed
# [1] = target: GlcNAc(a1-6)Gal(b1-4)GlcNAc
# In short: (§1)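 Glycan array data were curated from 3228 arrays in the Consortium for Functional Glycomics database and kept only where the protein sequence was available. Glycan names were converted to IUPAC-condensed notation, and columns mapping to the same glycan were averaged. The binding signal is a within-array Z-score, averaged across arrays of the same protein sequence at different concentrations or buffers and across linkers. Negative Z-scores can be read as non-binding.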
# [2] = target: GlcNAc(b1-2)Gal(b1-3)GalNAc
# In short: as §1
# [3] = target: GlcNAc(b1-2)Gal(b1-3)GlcNAc
# In short: as §1
# [4] = target: GlcNAc(b1-2)Man(a1-3)[GlcNAc(b1-2)Man(a1-6)]Man(b1-4)GlcNAc(b1-4)GlcNAc
# In short: as §1
# [5] = target: GlcNAc(b1-3)Gal
# In short: as §1
# [6] = target: GlcNAc(b1-3)Gal(b1-3)GalNAc
# In short: as §1
# [7] = target: GlcNAc(b1-3)Gal(b1-4)Glc
# In short: as §1
# [8] = target: GlcNAc(b1-3)Gal(b1-4)GlcNAc
# In short: as §1
# [9] = target: GlcNAc(b1-3)Gal(b1-4)GlcNAc(b1-3)Gal(b1-4)GlcNAc
# In short: as §1
# [10] = target: GlcNAc(b1-3)GalNAc
# In short: as §1
# [11] = target: GlcNAc(b1-3)Man
# In short: as §1
# [12] = target: GlcNAc(b1-3)[GlcNAc(b1-4)][GlcNAc(b1-6)]GlcNAc
# In short: as §1
# [13] = target: GlcNAc(b1-3)[GlcNAc(b1-6)]Gal(b1-4)GlcNAc
# In short: as §1
# [14] = target: GlcNAc(b1-3)[GlcNAc(b1-6)]GalNAc
# In short: as §1
# [15] = target: GlcNAc(b1-3)[GlcNAc(b1-6)]GlcNAc
# In short: as §1
# [16] = target: GlcNAc(b1-3)[GlcNAc(b1-6)]GlcNAc(b1-4)GlcNAc
# In short: as §1
# [17] = target: GlcNAc(b1-4)Gal(b1-4)GlcNAc
# In short: as §1
# [18] = target: GlcNAc(b1-4)GlcNAc
# In short: as §1
# [19] = target: GlcNAc(b1-4)GlcNAc(b1-4)GlcNAc
# In short: as §1
# [20] = target: GlcNAc(b1-4)GlcNAc(b1-4)GlcNAc(b1-4)GlcNAc(b1-4)GlcNAc
# In short: as §1
# [21] = target: GlcNAc(b1-4)GlcNAc(b1-4)GlcNAc(b1-4)GlcNAc(b1-4)GlcNAc(b1-4)GlcNAc
# In short: as §1
# [22] = target: GlcNAc(b1-4)[GlcNAc(b1-6)]GalNAc
# In short: as §1
# [23] = target: GlcNAc(b1-6)Gal(b1-4)GlcNAc
# In short: as §1
# [24] = target: GlcNAc(b1-6)GalNAc
# In short: as §1
# [25] = target: GlcNAc3Prop(b1-4)GlcNAc
# In short: as §1
# [26] = target: Kdn(a2-3)Gal(b1-3)GlcNAc
# In short: as §1
# [27] = target: Kdn(a2-3)Gal(b1-4)GlcNAc
# In short: as §1
# [28] = target: Man(a1-2)Man(a1-2)Man(a1-3)Man
# In short: as §1
# [29] = target: Man(a1-2)Man(a1-2)Man(a1-3)[Man(a1-2)Man(a1-3)[Man(a1-2)Man(a1-6)]Man(a1-6)]Man(b1-4)GlcNAc(b1-4)GlcNAc
# In short: as §1
# [30] = target: Man(a1-2)Man(a1-2)Man(a1-3)[Man(a1-2)Man(a1-6)[Man(a1-3)]Man(a1-6)]Man(b1-4)GlcNAc(b1-4)GlcNAc
# In short: as §1
# [31] = target: Man(a1-2)Man(a1-2)Man(a1-6)[Man(a1-3)]Man
# In short: as §1
# [32] = target: Man(a1-2)Man(a1-3)Man
# In short: as §1
# [33] = target: Man(a1-2)Man(a1-3)[Man(a1-2)Man(a1-6)]Man
# In short: as §1
# [34] = target: Man(a1-2)Man(a1-3)[Man(a1-2)Man(a1-6)]Man(a1-6)[Man(a1-2)Man(a1-2)Man(a1-3)]Man
# In short: as §1
# [35] = target: Man(a1-2)Man(a1-3)[Man(a1-2)Man(a1-6)]Man(a1-6)[Man(a1-2)Man(a1-2)Man(a1-3)]Man(b1-4)GlcNAc(b1-4)GlcNAc
# In short: as §1
# [36] = target: Man(a1-2)Man(a1-3)[Man(a1-3)[Man(a1-6)]Man(a1-6)]Man(b1-4)GlcNAc(b1-4)GlcNAc
# In short: as §1
# [37] = target: Man(a1-2)Man(a1-3)[Man(a1-6)]Man(a1-6)[Man(a1-2)Man(a1-3)]Man(b1-4)GlcNAc(b1-4)GlcNAc
# In short: as §1
# [38] = target: Man(a1-2)Man(a1-6)[Man(a1-3)]Man(a1-6)[Man(a1-2)Man(a1-2)Man(a1-3)]Man
# In short: as §1
# [39] = target: Man(a1-2)Man(a1-6)[Man(a1-3)]Man(a1-6)[Man(a1-2)Man(a1-2)Man(a1-3)]Man(b1-4)GlcNAc(b1-4)GlcNAc
# In short: as §1
# [40] = target: Man(a1-3)[Man(a1-6)]Man
# In short: as §1
# [41] = target: Man(a1-3)[Man(a1-6)]Man(a1-6)[Man(a1-2)Man(a1-3)]Man(b1-4)GlcNAc(b1-4)GlcNAc
# In short: as §1
# [42] = target: Man(a1-3)[Man(a1-6)]Man(a1-6)[Man(a1-3)]Man
# In short: as §1
# [43] = target: Man(a1-3)[Man(a1-6)]Man(a1-6)[Man(a1-3)]Man(b1-4)GlcNAc(b1-4)GlcNAc
# In short: as §1
# [44] = target: Man(a1-3)[Man(a1-6)]Man(b1-4)GlcNAc(b1-4)GlcNAc
# In short: as §1
# [45] = target: Man(a1-6)Man
# In short: as §1
binder,measurement,setting,value
B1,glycan array binding signal (z-score),[1],-0.245
same,glycan array binding signal (z-score),[2],-0.262
same,glycan array binding signal (z-score),[3],-0.132
same,glycan array binding signal (z-score),[4],-0.212
same,glycan array binding signal (z-score),[5],-0.219
same,glycan array binding signal (z-score),[6],-0.209
same,glycan array binding signal (z-score),[7],-0.221
same,glycan array binding signal (z-score),[8],-0.219
same,glycan array binding signal (z-score),[9],-0.236
same,glycan array binding signal (z-score),[10],-0.221
same,glycan array binding signal (z-score),[11],-0.191
same,glycan array binding signal (z-score),[12],-0.163
same,glycan array binding signal (z-score),[13],-0.236
same,glycan array binding signal (z-score),[14],-0.26
same,glycan array binding signal (z-score),[15],-0.06
same,glycan array binding signal (z-score),[16],-0.297
same,glycan array binding signal (z-score),[17],-0.225
same,glycan array binding signal (z-score),[18],-0.179
same,glycan array binding signal (z-score),[19],-0.237
same,glycan array binding signal (z-score),[20],-0.241
same,glycan array binding signal (z-score),[21],-0.242
same,glycan array binding signal (z-score),[22],-0.219
same,glycan array binding signal (z-score),[23],-0.22
same,glycan array binding signal (z-score),[24],-0.246
same,glycan array binding signal (z-score),[25],-0.186
same,glycan array binding signal (z-score),[26],-0.232
same,glycan array binding signal (z-score),[27],-0.24
same,glycan array binding signal (z-score),[28],1.23
same,glycan array binding signal (z-score),[29],8.87
same,glycan array binding signal (z-score),[30],1.35
same,glycan array binding signal (z-score),[31],4.66
same,glycan array binding signal (z-score),[32],-0.116
same,glycan array binding signal (z-score),[33],4.86
same,glycan array binding signal (z-score),[34],0.786
same,glycan array binding signal (z-score),[35],2.38
same,glycan array binding signal (z-score),[36],0.23
same,glycan array binding signal (z-score),[37],-0.089
same,glycan array binding signal (z-score),[38],-0.195
same,glycan array binding signal (z-score),[39],1.47
same,glycan array binding signal (z-score),[40],-0.219
same,glycan array binding signal (z-score),[41],-0.23
same,glycan array binding signal (z-score),[42],-0.178
same,glycan array binding signal (z-score),[43],-0.178
same,glycan array binding signal (z-score),[44],-0.208
same,glycan array binding signal (z-score),[45],-0.194
